Laboratory results from PubChem BioAssay AID686979 (National Center for Advancing Translational Sciences (NCATS), 2013).
Hit rate of the full screen: of about 420,000 compounds, about 50,000 (12%) were called active. Inconclusive results, whose numbers are uncertain, are shown with a selection of clear calls. Calls follow the shape of the dose curve; as a rule, active = well fitted inhibition curve with a large enough effect; inconclusive = small, poorly fitted or top-dose-only effect; inactive = flat fitted curve, though single readings scatter. Potencies of inconclusive entries are left out as doubtful fits.

Test: qHTS for Inhibitors of human tyrosyl-DNA phosphodiesterase 1 (TDP1): qHTS in cells in presence of CPT; also: nearly all actives have a fitted effect of over 55% in size
Conditions: chicken DT40 Tdp1-/-;hTDP1 cells + 20 nM CPT, ATP luminescence, 48 h; activity change, negative = growth inhibition: at 46.2 µM (top of the series) unless noted
How it was run: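 Cell growth measured by CellTiter-Glo luminescence after a minimum 48 h, 37 C compound exposure with 20 nM CPT in Tdp1-knockout DT40 cells stably expressing hTDP1, seeded 400/well; qHTS titration format.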
% is scaled to controls: 0 for no effect and ±100 for the full control effect; potency is read from the fitted curve at half-maximal effect; tags tell the direction and shape of the fitted curve.

Row | SMILES | Potency | activity change, negative = growth inhibition
1 | CCn1c(C)c(C)c2cc(C(=O)NCCN3CCCCCC3)ccc21 | inconclusive [inhibitor, partial curve, poor fit] | –
2 | CN(C)c1ncc(C2=C(Cl)C(=O)C(N3CCCC3)=C(Cl)C2=O)s1 | active: 0.92 µM | –
3 | O=C(CCn1ccc2ccccc21)Nc1ccc(N2CCOCC2)cc1 | inactive | –
4 | O=C(Nc1cccc(Cl)c1)c1ccc2sc([C@H]3C[C@H](O)[C@@H](CO)O3)nc2c1 | active: 25.9 µM | –
5 | Cc1ccc(NC(=O)C2CCN(S(=O)(=O)c3ccc4c(c3)CCCC(=O)N4)CC2)cc1N(C)C | inconclusive [inhibitor, single point] | –
6 | Cc1ccc(-n2nnnc2SCC(=O)c2c(N)n(C3CC3)c(=O)[nH]c2=O)c(C)c1 | inconclusive [inhibitor, single point] | –
7 | CCCOc1ccccc1-c1nc(SCCC(=O)O)n[nH]1 | inactive | –
8 | CCN(CC(=O)Nc1ccccc1C(F)(F)F)C(=O)CCc1ccccc1 | inactive | –
9 | CC1(C)CC(=O)C2=C(C1)OC1=C(C(=O)CC(C)(C)C1)C2c1ccc(O)c([N+](=O)[O-])c1 | inconclusive [inhibitor, single point] | –
10 | O=C(CSc1nc2ccccc2c(=O)n1C1CC1)NCc1ccccc1 | inactive | –
11 | CCOc1ccc(NC(=O)CSc2nc3ccsc3c(=O)n2CCC(C)C)cc1 | – | inconclusive: -32.7% [inhibitor]
12 | C[C@H](CO)N1C[C@H](C)[C@@H](CN(C)Cc2ccc(-c3ccccc3)cc2)Oc2ncc(C#C[C@@H](C)O)cc2C1=O | inconclusive [inhibitor, single point] | –
13 | Cc1cc(C)cc(OCC(=O)N/N=C/c2ccncc2)c1 | inactive | –
14 | COc1ccccc1NC(=O)NC1CC(=O)N(c2ccc3c(c2)OCCO3)C1 (stereo not given) | inactive | –
15 | CC(C)(C)OC(=O)N1CCC[C@H]1C(=O)OCC(=O)Nc1cc(S(C)(=O)=O)ccc1Cl | inconclusive [inhibitor, single point] | –
16 | Cc1cccc(-c2cccc(NC(=O)C3CCCN(C(=O)c4csc(C)n4)C3)c2)c1 (stereo not given) | active: 1.46 µM | –
17 | O=C(Nc1cc2c3c(c1)CC(=O)N3CCC2)c1ccc(F)cc1 | inactive | –
18 | CCOC(=O)c1cnc(SCC(=O)Nc2cc(OC)cc(OC)c2)nc1N | active: 8.2 µM | –
19 | O=C(c1ccco1)N1N=C(c2cccs2)CC1c1ccccc1O (stereo not given) | active: 18.4 µM | –
20 | Cc1nc(SCC(=O)N2CCCC2=O)c2c(C)c(C)sc2n1 | inconclusive [inhibitor, single point] | –
21 | COc1cc2ccccc2cc1C(=O)N1CCN(c2ccccc2O)CC1 | inconclusive [inhibitor, single point] | –
22 | CCc1nc2ccc(C(=O)N3CCN(C(=O)c4ccco4)CC3)cn2c1N(C)C(=O)c1cccc(OC)c1 | inactive | –
23 | COc1cc(OC)c2c3c(c(C4CCCCC4)nc2c1)CCC3 | inconclusive [inhibitor, single point] | –
24 | COc1ccc(OC)c(-n2c(SC)nnc2-c2c[nH]c3ccccc23)c1 | inconclusive [inhibitor, single point] | –

Row | SMILES | Potency | activity change, negative = growth inhibition
25 | CCCCCCCC1(C)NC(=O)N(c2ccccc2)N1 (stereo not given) | inconclusive [inhibitor, single point] | –
26 | CCOc1ccccc1N1C(=O)CC(N(O)c2ccccc2)C1=O (stereo not given) | inconclusive [inhibitor, single point] | –
27 | CCOc1ccc(/C=C/C(=O)N(C)CC(=O)Nc2cccc(F)c2)cc1OCC | inactive | –
28 | CCn1c(CNc2ccc(F)cc2)nnc1SCC(=O)OC1CCCCC1 | inconclusive [inhibitor, full curve, poor fit] | –
29 | COc1cc(OC)c2ccc(=O)oc2c1C(CCN1CCN(c2ccccc2)CC1)c1ccc2c(c1)OCO2 (stereo not given) | active: 23.1 µM | –
30 | CCOc1ccc(NC(=O)CSc2nnc(Cc3cccn3C)n2-c2ccc(OC)cc2)cc1 | inconclusive [inhibitor, partial curve] | –
31 | CC(=O)Nc1cccc(NC(=O)C(=O)c2cn(CC(=O)N3CCCC3)c3ccccc23)c1 | inconclusive [inhibitor, single point] | –
32 | O=C(O)c1ccc(N2CC3CC(C2)c2cccc(=O)n2C3)c(NS(=O)(=O)c2cccc(C(F)(F)F)c2)c1 (stereo not given) | inactive | –
33 | C=C1C=C(C(F)F)n2ncc(C(=O)NCc3ccc(F)cc3)c2N1 | inconclusive [inhibitor, single point] | –
34 | Cc1ccc(OCC(=O)NC(=S)Nc2cccc(NC(=O)c3ccccc3Cl)c2)cc1 | inconclusive [inhibitor, single point] | –
35 | COc1ccc(C(=O)N(C)CCCC2CCCC2)cc1OC1CCN(C(C)C)CC1 | inconclusive [inhibitor, single point] | –
36 | COC(=O)c1sccc1NC(=O)/C=C\c1ccc(Cl)cc1Cl | inconclusive [inhibitor, single point] | –
37 | C[C@@H]1OC(C2CCCCC2)N(C)[C@H]2C[C@H]3c4[nH]c5ccccc5c4CCN3C[C@@H]12 (stereo not given in full) | active: 20.6 µM | –
38 | COc1ccc(OC)c(-c2ccnc(-n3ncc(C(=O)N(C)CCO)c3C3CC3)n2)c1 | inactive | –
39 | COc1ccc(NC(=O)C(C)Sc2nnc3c4c(nc(-c5ccc(OC)cc5)n23)CC(C)(C)OC4)cc1 (stereo not given) | active: 20.6 µM | –
40 | CCCOC(=O)c1cccc(NC(=O)COc2ccc([N+](=O)[O-])cc2)c1 | active: 18.4 µM | –
41 | Cc1ccc2c(c1)CCCN2C(=O)c1ccco1 | inactive | –
42 | Cc1c(N2C(=O)CSC2=S)c(=O)n(-c2ccccc2)n1C | inconclusive [inhibitor, single point] | –
43 | Cc1ccc(NC(=O)N2CCCCCC2)c(C)c1 | inactive | –
44 | O=S(=O)(Nc1cccc(-c2ccc3nncn3n2)c1)c1cc(F)ccc1F | inconclusive [inhibitor, single point] | –
45 | COc1ccc(C(=O)N(Cc2ccccc2)c2ccc(C)cc2)cc1S(=O)(=O)N1CCOCC1 | inconclusive [inhibitor, single point] | –
46 | CC1CC(C)CN(C(=O)C(C)N2CCN(S(=O)(=O)c3ccccc3F)CC2)C1 (stereo not given) | inconclusive [inhibitor, single point] | –
47 | O=C(CSc1cn(CC(=O)N2CCCCC2)c2ccccc12)NCc1ccccc1Cl | active: 23.1 µM | –
48 | Cc1ccc(NC(=O)CN(C)CC(=O)Nc2sc3c(c2C(N)=O)CCC3)cc1 | inconclusive [inhibitor, single point] | –

Row | SMILES | Potency | activity change, negative = growth inhibition
49 | CC(C)c1ccc(NC(=O)c2cc3c(=O)[nH]c4ccccc4c3n2C)cc1 | active: 6.51 µM | –
50 | Cc1csc(CN(C)C(=O)CC2C(=O)NCCN2Cc2ccc(-c3ccccc3)cc2)n1 (stereo not given) | inconclusive [inhibitor, single point] | –
51 | CCOc1ccc(S(=O)(=O)N2CCCCC2)cc1NC(=O)C1COc2ccccc2O1 (stereo not given) | inconclusive [inhibitor, single point] | –
52 | CCCCCCN1C[C@@H](O)[C@H](n2cc(C3CC3)nn2)C[C@@H]1c1ccc(OC)cc1 | inconclusive [inhibitor, single point] | –
53 | C[C@H](CO)N1C[C@H](C)[C@H](CN(C)S(=O)(=O)c2ccccc2)OCc2ccccc2-c2c(n(C)c3ccccc23)C1=O | inactive | –
54 | O=C(NNC(=O)c1ccccc1OCc1ccccc1Cl)c1csc(N2CCOCC2)n1 | inconclusive [inhibitor, single point] | –
55 | O=C(CCC1CCCN(C(=O)c2ccsc2)C1)N1CCN(c2ccccn2)CC1 (stereo not given) | inconclusive [inhibitor, single point] | –
56 | CCN(CC)CCn1c(NCc2ccc(C)o2)nc2ccccc21 | inconclusive [inhibitor, partial curve, poor fit] | –
57 | COCCNC(=O)C(Cc1c[nH]c2ccccc12)NC(=O)OCc1ccccc1 (stereo not given) | inactive | –
58 | CNC(=S)N(Cc1cccs1)Cc1cc2ccc(OC)cc2[nH]c1=O | inconclusive [inhibitor, single point] | –
59 | CCN1C(=O)c2ccccc2S(=O)(=O)c2ccc(C(=O)NCc3ccccc3OC)cc21 | inconclusive [inhibitor, single point] | –
60 | COc1ccc(OC(=O)Nc2ccccc2)cc1 | inactive | –
61 | COc1cccc(CSC(C(=O)O)c2ccccc2)c1 (stereo not given) | inactive | –
62 | CCN(CC)c1ccc(S(=O)(=O)N2CCCCC2)cc1NC(=O)C1=COCCO1 | inconclusive [inhibitor, single point] | –
63 | COC(=O)[C@H]1[C@H]2C[C@@H]3c4[nH]c5cc(OC)ccc5c4CCN3C[C@H]2C[C@H](OC)[C@@H]1OC | inconclusive [inhibitor, single point] | –
64 | Cn1c(=O)c2[nH]c(-c3ccccc3Cl)c(O)c2n(C)c1=O | inactive | –
65 | O=C(O)c1ccc(S(=O)(=O)N2CCCc3ccccc32)cc1 | inactive | –
66 | COc1ccccc1OCC(=O)c1[nH]c(C)c(C(C)=O)c1C | active: 14.6 µM | –
67 | O=C(N/C(=C\c1ccco1)C(=O)N1CCCC(CO)C1)c1ccccc1 (stereo not given) | inactive | –
68 | O=C(CN1C(=O)c2cccnc2Sc2ccccc21)Nc1cc(F)ccc1F | inconclusive [inhibitor, single point] | –
69 | COc1cccc(Nc2nnc(SCC(=O)N(CC(C)C)CC(C)C)s2)c1 | inconclusive [inhibitor, single point] | –
70 | O=C(NC1CCCc2ccccc21)c1cn2ccccc2n1 (stereo not given) | inactive | –
